From the supplement of paper PMC11417369
The other results are listed elsewhere or left out.

Test system: PfAP2-HC AP2 domain (GST-tagged)
Test: gcPBM binding intensity (ln(normalized median fluorescence intensity)); higher = stronger DNA binding
In short: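 DNA-binding domains from P. falciparum, fused to GST and produced in E. coli, were put on an Agilent 4 × 180k double-stranded probe array for 1 h in 1× PBS holding 1% milk, 0.2 mg/ml BSA, 0.5% salmon testes DNA and 0.03% Triton X-100. Probes were primer-extended, 36 bp long and drawn from intergenic genomic regions, with negative controls included. After Alexa488 anti-GST antibody detection and a 488 nm scan, binding intensity was set as the highest Masliner-normalised natural-log median intensity across replicate spots of either probe orientation.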

Sequence	gcPBM binding intensity (ln)
ATTTTTTCTTTTTTTTTTCCGTTTTTTTGGACATTT [CACACA_negctrl_site1174]	9.75
TAAAGGAGCCTATGAACACACACATGTACTTATATT [CACACA_site9351]	10.2
AATTGTTTGTTTGGGTGTACATGGTTCTATATAAAT [XGTACX_site7940]	10.3
ATAAAAAATAAATAAGGTACAGAACATTTATACATT [XGTACX_site1783]	9.77
AAATTAAACAATAAATGTACATATATATTTGTATAT [XGTACX_site1092]	9.68
AACAAGGTATTAGGGTGTACTATATATATTTATATT [XGTACX_site7776]	9.82
TTTATTACCATATTTTGTACACACATCTTTATCTCA [XGTACX_site6842]	10.5
CTTTTATTGCTCTATATGCACACCTTAATTCTTCAT [CACACA_site2195]	10.1
AATGGGTTAGCACATACACACCAATATATTATAGAT [CACACA_site7444]	9.93
GCAAAATTTCCTAAGGTGCTTTTATTTTACACCGTT [GTGCAC_site9923]	9.78
AAAACCTAAAAGTCTTAAATTTTAAATATACCTACA [GTGCAC_negctrl_site492]	9.5
TAATTTGAACGGTACAGTACTCTTTTTCTTTTTCAT [XGTACX_site5534]	9.62
ATATATTTTTTCAATTGTACGTTTTAATAATATTTA [XGTACX_site2130]	9.66
AATACAACATAATGAAGTACTGTATTTTATATTACT [XGTACX_site4885]	9.75
ATGAAATCTTTAGAATATAGATGATGTTATTTAATT [XGTACX_negctrl_site511]	9.41
TTTCTTTGAATAAATACACACGAGAAATGAAAGTAG [CACACA_site8490]	9.73
ACTCTATACATCTAATGTACATGGAAAAAAAAATTC [XGTACX_site733]	9.48
ATTAAAATGGTATGTGCGCACATAATATATATATGT [GTGCAC_site9572]	10.2
ATATAAATGATATGTACACACATTTATATTTATAAA [CACACA_site7600]	9.73
ACATTGACATGTCGAAGTACTCAAGAAGCATACAAT [XGTACX_site3948]	9.73
TTCTTACATAAAATATCACACACATAAAAAAACAAT [CACACA_site8576]	10.4
GTAATAAGAATTATAGTGCAATGTAATACATTTATA	9.68
TGGAAAATTATTAACACACACATATAAATATATATA [CACACA_site46]	10.2

Sequence	gcPBM binding intensity (ln)
TATATTATCAAAATGGTGCAATAATTTCTATATTAT [GTGCAC_site9772]	9.49
AAAAGAAATAAGGATACACACTATTGATAAAAGTAG [CACACA_site4309]	9.88
TCGTGGGAAAATATTACACACATTTACTATAGTATC [CACACA_site5836]	10.1
TATTACAAATAATACCGTACACAAATGTTTTTTTAT [XGTACX_site7977]	9.59
CTTGGGAAGTATTCAGTGCAAAATATAAGCAGGTCA [GTGCAC_site9758]	9.61
TGGATAATCAAAAATTGTACAAGTGTTGTTATTGGT [XGTACX_site8010]	9.69
ACCGGTGGAACGTTTTGTACATATATAATAATATAT [XGTACX_site2143]	9.73
ATATATATATTGAAAAGTACATATATATATATATTA [XGTACX_site1560]	9.47
TTTTTTTTTATATATACACACAATAAATAAATATAA [CACACA_site2954]	9.43
TACATAAATACATACATACACACATATATATATATA [CACACA_site2105]	9.87
GGTTAAAAAAAGCATACACACTATCCTCTTTGCTCT [CACACA_site7246]	10.1
CTTTTTTATTTTTCAACACACATAATAAATTTCTAT [CACACA_site1037]	9.82
GAACCTTTAAAATACACACCCAAATCCTTTGAAATA [CACACA_site3630]	9.76
ATATTTTACAAATGCACACATAATTTTTTTTTTTTT [CACACA_site2763]	9.77
ATATAAAAAATATAAGGTACACATATATGTAGATAT [XGTACX_site6792]	9.97
TAAATAAAATACAAATGTACATAAATAATAAATATA [XGTACX_site1813]	9.81
AATTATTTTAAATATTGTACTATTACAGAATGGTGT [XGTACX_site5693]	9.62
AGCAGACACCAACACACACACATATATATATATATA [CACACA_site337]	10.5
TATATATTAATCAAAGTGCAATAATAAAATAAAAGT [GTGCAC_site9490]	9.87
TAACTTTATTTTCCTGTACACACATTTGACATATTA [CACACA_site9116]	9.97
TCAAATTACGTAAGAACATGCGATATAAGAAATACG [TGCATGCA_site691]	9.7
CTCTAATTAATATTTGTACACACATATTTAACCTAC [CACACA_site9043]	9.96
